# According to publication PMC4344327, “Region-Specific Activation of oskar mRNA Translation by Inhibition of Bruno-Mediated Repression” (PLoS Genetics, 2015):
# Results are given in words; binding and its absence hold for the method and conditions named. Some entries that bind do so weakly or less than the wild type. For part of these data: Tags and fused reporters may be left off the sequences shown.
# T1: GST::Cup577–947 (Drosophila) (UniProt Q9VMA3)
# T1 sequence: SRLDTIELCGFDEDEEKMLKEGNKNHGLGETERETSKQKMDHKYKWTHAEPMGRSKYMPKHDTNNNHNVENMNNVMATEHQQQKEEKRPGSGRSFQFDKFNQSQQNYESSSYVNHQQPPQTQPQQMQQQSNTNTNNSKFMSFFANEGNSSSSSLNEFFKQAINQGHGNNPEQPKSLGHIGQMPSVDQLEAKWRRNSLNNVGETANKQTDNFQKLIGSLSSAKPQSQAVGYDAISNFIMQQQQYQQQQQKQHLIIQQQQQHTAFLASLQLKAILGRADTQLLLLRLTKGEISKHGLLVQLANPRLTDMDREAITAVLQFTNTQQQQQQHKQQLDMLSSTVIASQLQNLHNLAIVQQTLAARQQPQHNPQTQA
# Legend:
# [1] = biological target: T1, GST::Cup577–947 (Drosophila); experiment: pull-down; GST::Bru, GST::Cup or GST immobilized on Glutathione Sepharose 4B from E. coli extract and washed; ~100 ng N-terminally His6-tagged Bru protein in 80 μl binding buffer (50mM Tris-Cl pH7.5, 150mM NaCl, 10% glycerol, 1mM DTT, 0.1% IGEPAL-CA-630), 2–3 hr at room temperature; Western blot with anti-His antibody; both purified
# [2] = biological target: GST::Bru (full-length Bruno fused to GST) (Drosophila) (UniProt O02374); experiment: as above
Molecule,binding [1],binding [2]
His6::Bru Δ1–146 Δ334–416 (from UniProt O02374 147-604) (domain or fragment),no binding (tested: ~100 ng in 80 μl),–
"His6::Bru 1–146 (isolated amino-terminal domain) (domain or fragment, Drosophila, UniProt O02374 1-146, looked up, also called Bru amino-terminal domain; source: E. coli, purified (Ni-NTA); not shown: His6, N-terminal, kept) MFTSRASFLANRRMIFDFSEKNNDIYLDAFGMSDKSSSATNSLPNSPIHSNNNNPSLLNNNNNNSNGTSSNNSLNVGNNNSNPSLGGTNSNALVSVGSNGIMSAAGLVNNNNNPCSANRNVVAMVDDDACFRLDTDATVTYGEKEP",binds,–
"His6::Bru (full-length Bruno, Bru+) (natural protein, Drosophila, UniProt O02374 1-604, looked up, Bruno (Bru; encoded by the aret gene), Drosophila; full-length Bru in pET-15b; Vector pET-15b; The tethered transgene proteins carry RRM2/RRM3 point mutations; source: E. coli, purified (Ni-NTA); not shown: His6, N-terminal, kept) MFTSRASFLANRRMIFDFSEKNNDIYLDAFGMSDKSSSATNSLPNSPIHSNNNNPSLLNNNNNNSNGTSSNNSLNVGNNNSNPSLGGTNSNALVSVGSNGIMSAAGLVNNNNNPCSANRNVVAMVDDDACFRLDTDATVTYGEKEPDPDNIKMFVGQVPKSMDESQLREMFEEYGAVHSINVLRDKATGISKGCCFVTFYTRRAALKAQDALHNVKTLNGMYHPIQMKPADSENRNERKLFVGMLNKKLNENDVRKLFEVHGAIEECTVLRDQNGQSKGCAFVTFATKHAAISAIKVTLSQNKIMEGCTSPLVVKFADTQKEKEQKKIQQIQANLWNLASNINIPLGQTATSVTTPILPNPPQQPSPVLGADAITPASIQLLQQLQAVGLQHQLLQALTGLGAQQSSSATDTSAVAAAGLLTPMTVQNLAAIAAMTQPSLSNAAAAAARATSPGSAQLTNTAALLWSDPNPMASAYMSTAAGLPQFGSASALSTSPLASVALSAAAAAAAGKQIEGPEGCNLFIYHLPQEFTDTDLASTFLPFGNVISAKVFIDKQTSLSKCFGFVSFDNPDSAQVAIKAMNGFQVGTKRLKVQLKKPKDSKPY",binds,–

# Now from value to molecule:
binding [1],binding [2],Molecule
binds,no binding (tested: ~100 ng in 80 μl),His6::Bru Δ1–146 (from UniProt O02374 147-604) (domain or fragment)
binds,–,"His6::Bru Δ334–416 (natural protein, Drosophila, UniProt O02374 1-604, looked up, also called Bru lacking most of the linker domain between RRMs 2 and 3; source: E. coli, purified (Ni-NTA); not shown: His6, N-terminal, kept) MFTSRASFLANRRMIFDFSEKNNDIYLDAFGMSDKSSSATNSLPNSPIHSNNNNPSLLNNNNNNSNGTSSNNSLNVGNNNSNPSLGGTNSNALVSVGSNGIMSAAGLVNNNNNPCSANRNVVAMVDDDACFRLDTDATVTYGEKEPDPDNIKMFVGQVPKSMDESQLREMFEEYGAVHSINVLRDKATGISKGCCFVTFYTRRAALKAQDALHNVKTLNGMYHPIQMKPADSENRNERKLFVGMLNKKLNENDVRKLFEVHGAIEECTVLRDQNGQSKGCAFVTFATKHAAISAIKVTLSQNKIMEGCTSPLVVKFADTQKEKEQKKIQQIQAAAGLLTPMTVQNLAAIAAMTQPSLSNAAAAAARATSPGSAQLTNTAALLWSDPNPMASAYMSTAAGLPQFGSASALSTSPLASVALSAAAAAAAGKQIEGPEGCNLFIYHLPQEFTDTDLASTFLPFGNVISAKVFIDKQTSLSKCFGFVSFDNPDSAQVAIKAMNGFQVGTKRLKVQLKKPKDSKPY"
